T1: TRAF2, Q12933
T1 chain: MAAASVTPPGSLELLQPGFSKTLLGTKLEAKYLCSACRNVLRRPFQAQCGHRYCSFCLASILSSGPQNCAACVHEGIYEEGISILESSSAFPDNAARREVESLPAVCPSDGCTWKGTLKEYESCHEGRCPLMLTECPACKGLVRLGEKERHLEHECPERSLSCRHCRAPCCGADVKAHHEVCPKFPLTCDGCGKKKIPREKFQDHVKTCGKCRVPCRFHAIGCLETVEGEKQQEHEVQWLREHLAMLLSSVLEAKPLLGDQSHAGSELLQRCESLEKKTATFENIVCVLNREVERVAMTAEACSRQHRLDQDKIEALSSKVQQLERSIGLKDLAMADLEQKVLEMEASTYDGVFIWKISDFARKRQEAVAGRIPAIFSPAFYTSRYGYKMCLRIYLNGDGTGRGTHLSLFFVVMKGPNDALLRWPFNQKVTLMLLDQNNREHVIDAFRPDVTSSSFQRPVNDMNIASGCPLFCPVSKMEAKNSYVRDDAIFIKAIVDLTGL

B1: traf2_out_9_17_2614 (protein)
chain: SAAEEKLKKETLKAIEEVLKKLVEKGYITEEEAEEILKKVKELIEKGASVDEIIASFLGDVASILLTKSNLSLSEANKIVGEAYRELRKKREEIEKKLAA
B2: traf2_out_12_187_949 (protein)
chain: SVEEELLEAAKEALRQALRALEAAGPDDPRLRELRRLLEEAAEALEKDPSIASDLLVAASLALRAVRLLEAGAPPEEVERALEEARRELEEVLEEAKRKA
B3: traf2_out_19_16_1981 (protein)
chain: AREELERLRRELEEIERRVRELEAYFLANEDTLTREELSDLLVEVSELRRRAREIRERLEELAGVDPEEVERLRRRAEEVIERAQRLANRIVDRYEALLK
B4: traf2_out_5_189_2316 (protein)
chain: SMREEEQKKLNEKAKEIGKEVTDLINKMKAEGKSWEEIAKKMLEKMKKLDVETASLYSGIFYSIMMGEAIANNDEELKKIAEEFRKEAKKLIEEKEKKEA
B5: traf2_out_6_3_2519 (protein)
chain: MEESLREDARTVLKNMGITTAEQLLRLVKAEVNAVKKLVSRKDVDRADLAGAESVLALTRAMVEVAAEELPDLTEEQKAEMLELIEEAEKLVEEKRKELE
B6: traf2_out_17_162_1490 (protein)
chain: EELEERLRELERRLEELERRLKELEEKLKNIDKLSKEELTDLLVEASEAKREARRLAEELRELRERTGREELEELIRRAEEIAERLQRIANIIYKELEKK
B7: traf2_out_20_3_2089 (protein)
chain: EELKKELEKELEEAEKLIKEAIKIADEETAKKLKELKKKLKEAKELPLDEMLVELSEIRRELLELAEKAKKEGKEELAKILEEAADKVNKAMNLAYKIIE
B8: traf2_out_6_156_2424 (protein)
chain: MLEKIIKEAEEKIKKEIKKLAEASEEKKIKYISDIAGAVYKALQKMREAGASVEEIKEAIERLKKVAEKEAKKAGLDKDTRDLLLASINAVGEVALREAK
B9: traf2_out_16_104_1402 (protein)
chain: SEERREEFERIIEELREIAEELQRIANEIYKLYEKASPEEKKKLSDLLVEASEARREALEAALEAEEALRRGGDLEEARRRLERARERAERVRKEAEELK
B10: traf2_out_11_155_717 (protein)
chain: EEKLKLNQELTNEIMEIADEADKELEKLIKEVEKKNPEVAKKLRELLEENKDKGITTKLLSAARLLEEAGLEEEAKKVLELLEETQKKMNELYKEYEKKL
B11: traf2_out_6_156_2429 (protein)
chain: KLEEILKETLEKIKKLIKELAKASEEKKISYISKIAGTVYKAFQQMRELGASVEELKEFGEKVLKEAKEWAKEAGLDESTINLLLASINAVTEVAIEEAK
B12: traf2_out_5_63_2365 (protein)
chain: SEEEEERRELREEARLIDAANNAVIAGDDAAAAALLAEAEARGISHRTMALHARGMARALRLQGADPAQIARMEAFAAELRAREAAAAAAEAAAAAAAAA
B13: traf2_out_16_104_1381 (protein)
chain: SEEKEKKFEEIIKEYNEIAEEANRLANEIYKLMETADEEKKKELSDLLVKVSELKREALEAAIEAEEALKKGGDLEKQEKKLKELKKKLEELKKEVKELK
B14: traf2_out_9_108_2592 (protein)
chain: MSEEEKLEETFKKVKELAEEFIKTVDLTPEQKEQLKKAIENAEKLYEEGLKRTAIILLAIDMARVASEVGEEAVEELLKRLKEIDERAYNAAKRMVELLK
B15: traf2_out_14_149_1259 (protein)
chain: SATEERKRALEEARELFREIAELLERAIEAGSTEVDLERLRELVRRAREILKKQGFVLGHLLAIEELLASREEFTLEDLRRLLELARRAAESAEVLAEML
B16: traf2_out_1_27_1018 (protein)
chain: STEELLKLIKETDKKIAESTIEEAKEIVKEALKEASKLGIGEVMILARTLIASEMDPERREAIKEAAIEAFKELGYPQEEIDRLKRAAETIKEKLEKLEA
B17: traf2_out_1_27_1011 (protein)
chain: SEEEENRALREFFRERSKLSPEGRIELAKERVREALKEGIGEARHLAVVIILSEGDKELRERLLEAITETMREAGVSEEDIEEIRRQAESGFERLEKALK
B18: traf2_out_20_3_2248 (protein)
chain: EELKKEAEKLLKEIKKLLKEAEPLLPEEAAKKAKELLEEAEKYFKTDLTEALVKLSELRRLALEQAQAARAAGDEETAKLLEKLAEAAQRAMQKLYELIE
B19: traf2_out_11_169_852 (protein)
chain: EEKEKNRKIIDKALELNDKAKEELKKHALALAKEAGLDTAEVEAIFEAHKGKSLSAIAAALIAWFRAQGKEEEAAAVLAKYEELKEKINKEMTEFIKELE

From the supplement of paper PMC12632987 come the findings set out here.

The full ranking holds about 1,800 sequences; the median of “median log2 fold change of GCK-ALFA target abundance (FLAG IP / Myc IP barcode read proportion)” is about 0.14, and the lowest 2% start at about -0.84. The list shows a part of the results.

The target in this test is T1, TRAF2, Q12933. The test is described as follows: median log2 fold change of GCK-ALFA target abundance (FLAG IP / Myc IP barcode read proportion) (log2 ratio); each designed protein is fused to an ALFA-tag nanobody in HEK293 cells to bring the named protein to FLAG-tagged glucokinase (GCK); Myc marks an untargeted standard; higher = target protein stabilised (more abundant). As to conditions: target protein: 3xFLAG-MCP-GCK-ALFA reporter; HEK293 landing pad (RPLP). The method in brief:
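HEK293 landing-pad cells received a recombined binder library fused to the ALFA nanobody and were induced with 2 μg mL^−1 doxycycline, then transfected with a plasmid encoding a FLAG-tagged target and a Myc-tagged standard. Lysates were collected after 48 h for anti-FLAG and anti-Myc immunoprecipitation, and the circular RNA barcodes were reverse transcribed, amplified and sequenced. Target abundance for each binder is the median log2 ratio of FLAG to Myc barcode read proportions. Barcodes had to reach a proportion of at least 10^−7 in both replicates, each binder needed at least 3 barcodes per replicate, a pseudocount of 10^−6 was applied, and the two replicates were pooled.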
On to B1, for which the “median log2 fold change” value is 0.202.

As to B2, the “median log2 fold change” value came out at 0.202.

B3: the “median log2 fold change” value was found to be 0.142.

Regarding B4, the “median log2 fold change” value was 0.226.

Consider B5, for which the “median log2 fold change” value was -0.45.

Consider B6, for which the “median log2 fold change” value was -1.17.

On to B7, for which the “median log2 fold change” value was determined as 0.29.

With B8, the “median log2 fold change” value was -0.0673.

For B9, the “median log2 fold change” value worked out at 0.241.

As to B10, the “median log2 fold change” value is 0.0275.

As to B11, the “median log2 fold change” value is 0.000118.

As to B12, the “median log2 fold change” value was -0.838.

With B13, the “median log2 fold change” value is -0.145.

Turning to B14, the “median log2 fold change” value came to 0.129.

Take B15: the “median log2 fold change” value was determined as 0.013.

Turning to B16, the “median log2 fold change” value came to 0.399.

Turning to B17, the “median log2 fold change” value was 0.232.

In the case of B18, the “median log2 fold change” value was 0.3.

B19: the “median log2 fold change” value came out at 0.464.
